Assay results as given in the supplement of paper PMC12217912.
Some of the results follow. The full chains were built here from the parent and the listed change. Values near 0.05 are background.

B1: TEV protease; numbered along this chain (parent)
chain: MGESLFKGPRDYNPISSSICHLTNESDGHTTSLYGIGFGPFIITNKHLFRRNNGTLVVQSLHGVFKVKDTTTLQQHLVDGRDMIIIRMPKDFPPFPQKLKFREPQREERICLVTTNFQTKSMSSMVSDTSCTFPSGDGIFWKHWIQTKDGQCGSPLVSTRDGFIVGIHSASNFTNTNNYFTSVPKNFMELLTNQEAQQWVSGWRLNADSVLWGGHKVFMVKPEEPFQPVKEATQL

Variants of: B1
Assay: raw area under fraction-flipped curve 0-4 h after induction (AUC4h, not background-subtracted), DNA-recorder readout of cleavage of the substrate (dimensionless); higher = more cleavage of the substrate by the protease variant
Details: temperature: 34 °C; time window: 0-4 h after rhamnose induction
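Also: Bxb1 expression induced with 0.2% (w/v) L-rhamnose at OD600 near 0.5, cultures sampled hourly, flipped fraction per protease–substrate barcode pair counted by paired-end Illumina sequencing.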

Row | Variant | area with substrate ENLYFQD | area with substrate ENLYFQG | area with substrate ENLYFQK | area with substrate ENLYFQL | area with substrate ENLYFQM | area with substrate ENLYFQQ | area with substrate ENLYFQS | area with substrate ENLYFQT | area with substrate ENLYFQW | area with substrate ENLYFQF
1 | G153V | 0.0381 | 0.0454 | 0.0575 | 0.0342 | 0.0561 | 0.0707 | 0.0486 | 0.0618 | 0.045 | 
2 | T174L | 0.0587 |  |  |  |  | 0.0974 | 0.102 |  |  | 0.0706
3 | P184R | 0.0596 | 0.0686 | 0.079 | 0.0611 |  |  | 0.0683 |  |  | 
4 | T192K | 0.0689 |  | 0.0465 | 0.0731 |  | 0.0844 | 0.0906 | 0.0571 | 0.0609 | 
5 | V200K | 0.0582 |  |  |  |  |  | 0.0801 |  |  | 
6 | G214S | 0.0406 |  |  | 0.0577 | 0.0745 |  | 0.0939 |  | 0.0445 | 
7 | H215A | 0.0701 |  | 0.0565 | 0.0566 | 0.0551 |  | 0.067 |  | 0.0606 | 0.053
8 | K216T | 0.0987 | 0.0663 |  | 0.0566 | 0.0863 |  | 0.0999 | 0.0676 | 0.065 | 
9 | F218R | 0.0626 |  | 0.0538 | 0.058 |  |  | 0.0821 |  |  | 
10 | A232E | 0.0072 | 0.102 | 0.0566 | 0.069 |  |  | 0.111 | 0.0383 | 0.0676 | 0.105
11 | W141H |  | 0.0624 |  | 0.0507 | 0.0884 |  | 0.0763 |  |  | 
12 | P184E |  | 0.0727 | 0.0649 |  |  |  | 0.0686 | 0.0489 | 0.0418 | 0.0654
13 | G202K |  |  |  |  | 0.117 |  | 0.0675 |  | 0.0555 | 
14 | P96C |  | 0.112 |  |  | 0.128 |  | 0.118 |  |  | 0.125
15 | T119F |  | 0.028 | 0.0582 | 0.0767 | 0.0965 |  | 0.106 |  |  | 0.0716
16 | K120T |  |  |  |  |  |  | 0.0954 | 0.0671 |  | 0.0861
17 | F133G |  | 0.0712 | 0.0339 | 0.0493 |  |  | 0.0867 | 0.0749 | 0.0612 | 0.0744
18 | E195Y |  | 0.0926 |  |  |  |  | 0.101 |  | 0.0765 | 0.0687
19 | V200G |  | 0.0492 |  |  | 0.0547 |  | 0.0609 | 0.0674 | 0.0533 | 0.0582
20 | D208I |  | 0.0839 | 0.0701 | 0.0532 | 0.0544 | 0.0514 | 0.0697 | 0.0568 | 0.0525 | 0.0638
21 | G8I |  | 0.0911 |  |  | 0.0518 |  | 0.094 |  |  | 
22 | L56K |  | 0.059 | 0.0469 | 0.0388 | 0.0407 | 0.0375 | 0.0478 | 0.0485 | 0.0475 | 

Row | Variant | area with substrate ENLYFQD | area with substrate ENLYFQG | area with substrate ENLYFQK | area with substrate ENLYFQL | area with substrate ENLYFQM | area with substrate ENLYFQQ | area with substrate ENLYFQS | area with substrate ENLYFQT | area with substrate ENLYFQW | area with substrate ENLYFQF
23 | V64H |  | 0.0738 |  |  |  |  | 0.102 |  |  | 
24 | F95M |  | 0.102 |  |  |  |  | 0.096 |  |  | 
25 | K120C |  | 0.0931 | 0.0652 | 0.0613 | 0.0786 |  | 0.0951 | 0.0617 | 0.0715 | 
26 | C152H |  | 0.0528 |  | 0.0553 |  | 0.0346 | 0.0604 |  | 0.0572 | 
27 | T192L |  | 0.133 | 0.0559 |  | 0.0651 | 0.104 | 0.101 | 0.0802 | 0.0704 | 
28 | N193S |  | 0.0844 |  |  | 0.0955 |  | 0.11 | 0.0637 |  | 
29 | V200Q |  | 0.0925 |  | 0.0674 |  |  | 0.0925 |  |  | 
30 | L205V |  | 0.0906 |  | 0.0622 | 0.0786 |  | 0.0861 | 0.0598 |  | 
31 | E3Y |  |  |  |  | 0.109 |  | 0.132 |  |  | 
32 | G8N |  |  |  |  | 0.123 |  | 0.112 |  |  | 
33 | P96T |  |  |  |  |  |  | 0.102 | 0.103 | 0.0662 | 
34 | S121T |  |  | 0.0375 |  | 0.0856 |  | 0.125 | 0.0522 |  | 
35 | G138H |  |  | 0.0558 | 0.0678 | 0.0728 |  | 0.0943 |  |  | 
36 | I164F |  |  |  | 0.0526 |  |  | 0.0594 | 0.0573 |  | 
37 | G8C |  |  |  | 0.0671 | 0.0909 |  | 0.0983 | 0.055 |  | 
38 | V58P |  |  |  | 0.0272 | 0.0273 |  | 0.0258 | 0.0337 |  | 
39 | A207M |  |  |  |  |  |  | 0.102 |  | 0.0613 | 
40 | S209I |  |  |  | 0.059 |  |  | 0.102 |  |  | 
41 | L77K |  |  |  |  | 0.0595 |  | 0.0688 | 0.0341 |  | 
42 | Q197Y |  |  |  |  | 0.0991 |  | 0.0941 |  |  | 
43 | D128G |  |  |  |  |  |  | 0.146 |  |  | 
44 | I110E |  |  |  |  |  | 0.0477 | 0.0503 |  | 0.0555 | 

Same assay, conditions: temperature: 34 °C; time window: 0-4 h after rhamnose induction

Row | Variant | area with substrate ENLYFQN | area with substrate ENLYFQY | area with substrate ENLYFQI | area with substrate ENLYFQH | area with substrate ENLYFQP | area with substrate ENLYFQR | area with substrate ENLYFQV | area with substrate ENLYFQE
45 | T174L | 0.077 | 0.0584 |  |  |  |  |  | 
46 | P184R | 0.0528 |  | 0.0395 |  |  |  |  | 
47 | T192K | 0.0782 |  | 0.0567 | 0.069 | 0.0722 | 0.0719 | 0.0564 | 
48 | G214S | 0.0713 |  |  | 0.0761 | 0.0506 | 0.0672 | 0.064 | 
49 | H215A | 0.057 |  | 0.0576 |  |  |  | 0.0589 | 
50 | K216T | 0.0799 | 0.0676 |  |  | 0.0587 | 0.0509 | 0.0646 | 
51 | F218R | 0.0508 |  |  | 0.06 |  |  | 0.0522 | 
52 | A232E | 0.083 | 0.0707 | 0.0597 |  |  | 0.0668 |  | 0.0548
53 | W141H | 0.0659 | 0.0613 | 0.0378 | 0.079 |  | 0.0705 |  | 0.0616
54 | P184E | 0.0826 |  |  |  | 0.0841 | 0.0579 |  | 0.0578
55 | G202K | 0.0613 |  |  |  |  |  |  | 0.0578
56 | P96C | 0.0818 | 0.0661 | 0.0538 |  | 0.0486 | 0.062 | 0.0594 | 
57 | T119F |  |  |  |  |  | 0.0659 |  | 
58 | K120T |  |  |  | 0.111 |  |  |  | 
59 | F133G |  | 0.0682 | 0.0651 | 0.088 | 0.0625 | 0.062 |  | 
60 | E195Y |  |  | 0.0505 |  |  | 0.0577 |  | 
61 | V200G | 0.0626 |  | 0.0511 |  |  | 0.0588 |  | 
62 | D208I | 0.0579 | 0.0637 | 0.0673 | 0.0754 | 0.0528 | 0.0626 | 0.0695 | 
63 | G8I | 0.0689 |  |  |  |  | 0.0515 |  | 
64 | L56K | 0.0523 | 0.0486 | 0.0352 | 0.085 | 0.0533 | 0.0504 |  | 
65 | V64H |  |  | 0.0616 | 0.0971 |  |  | 0.0399 | 

Row | Variant | area with substrate ENLYFQN | area with substrate ENLYFQY | area with substrate ENLYFQI | area with substrate ENLYFQH | area with substrate ENLYFQP | area with substrate ENLYFQR | area with substrate ENLYFQV | area with substrate ENLYFQE
66 | F95M |  |  |  | 0.0595 |  |  |  | 
67 | K120C | 0.0698 |  | 0.0553 |  |  | 0.0567 | 0.077 | 
68 | C152H |  | 0.0761 |  |  |  | 0.0608 | 0.0662 | 
69 | T192L |  |  |  | 0.0873 | 0.0568 | 0.0729 | 0.0357 | 
70 | N193S |  | 0.0705 | 0.0483 |  | 0.0698 |  |  | 
71 | V200Q |  |  |  |  |  | 0.0785 |  | 
72 | L205V | 0.0614 | 0.102 |  |  | 0.0565 |  | 0.0526 | 
73 | E3Y |  | 0.0979 |  | 0.0771 | 0.0439 | 0.0455 |  | 
74 | G8N |  | 0.0924 |  | 0.0773 |  | 0.0485 |  | 
75 | P96T |  |  |  | 0.049 | 0.0626 | 0.0719 |  | 
76 | S121T |  |  |  | 0.0749 | 0.048 |  |  | 
77 | G138H |  |  |  | 0.0752 |  |  |  | 
78 | I164F |  |  |  | 0.05 |  | 0.0397 |  | 
79 | G8C |  |  | 0.0503 |  |  | 0.0499 |  | 
80 | V58P |  |  | 0.0487 |  |  |  |  | 
81 | A207M |  |  | 0.0094 |  |  |  |  | 
82 | S209I |  |  | 0.047 |  | 0.0583 |  |  | 
83 | L77K |  | 0.0434 |  |  | 0.0501 | 0.0596 |  | 
84 | Q197Y | 0.076 |  |  |  | 0.0405 | 0.053 |  | 
85 | D128G | 0.108 |  |  |  |  |  |  | 
86 | I110E |  | 0.0563 |  |  |  |  |  | 
